{"source": "the supplement of paper PMC11417369", "note": "± gives the standard deviation of the averaged measurements. The list shows a part of the results.", "data": [{"test_system": "PfAP2-EXP AP2 domain (GST-tagged)", "assay": "gcPBM binding intensity (ln(normalized median fluorescence intensity)); higher = stronger DNA binding", "summary_of_the_method": "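GST-fused DNA-binding domains of P. falciparum, expressed in E. coli, were applied at about 25 μg on average for 1 h to an Agilent 4 × 180k array of primer-extended double-stranded 36-bp intergenic genomic probes and negative controls. Binding intensity is the highest Masliner-normalised natural-log median intensity across replicate spots of either probe orientation, measured with Alexa488 anti-GST antibody and a 488 nm scan.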", "values": [{"sequence": "CATATACTCGGACACACACACACACCGACAAAAAAA [CACACA_site4433]", "gcPBM binding intensity (ln)": "8.64 ± 0.4"}, {"sequence": "TATCATAAAATATGTAGTACGTATATATATAAAAAT [XGTACX_site5455]", "gcPBM binding intensity (ln)": "8.85 ± 0.4"}, {"sequence": "TTTTGTGGAGGATGGTGTACGGTATTGTATTATTAC [XGTACX_site1942]", "gcPBM binding intensity (ln)": "8.79 ± 0.49"}, {"sequence": "TTTATAGTTTTTAATAGTACACATATTTTTAAGTAT [XGTACX_site5498]", "gcPBM binding intensity (ln)": "8.53 ± 0.16"}, {"sequence": "AAAAAAAAAGTATATATATATTTAAGGAATTCTCTC [GTGCAC_negctrl_site454]", "gcPBM binding intensity (ln)": "8.34 ± 0.38"}, {"sequence": "TAAACAGACATACATACACACATACATACAGACATA [CACACA_site6997]", "gcPBM binding intensity (ln)": "8.71 ± 0.35"}, {"sequence": "ATATATATATATTGCACACATATAAATATATATATT [CACACA_site807]", "gcPBM binding intensity (ln)": "9.89 ± 0.13"}, {"sequence": "CAACCTTTTTTGTTGGTGCATAATTTTTTTTTCTTT", "gcPBM binding intensity (ln)": "8.795 ± 0.078"}, {"sequence": "AATATATAGCTAAAAACACACAAATATATACTCATA [CACACA_site5904]", "gcPBM binding intensity (ln)": "8.6 ± 0.4"}, {"sequence": "TTTATAAAATTTATTGCACACAATTATTTTATAATT [CACACA_site2489]", "gcPBM binding intensity (ln)": "8.41 ± 0.22"}, {"sequence": "ATACATTTTTTTTTCACACATATATATATATTTAAT [CACACA_site5995]", "gcPBM binding intensity (ln)": "8.92 ± 0.45"}, {"sequence": "CTCACGTAGCTTGATGCATGCAAACTTGAGTAAAAG [TGCATGCA_site409]", "gcPBM binding intensity (ln)": "9.53 ± 0.31"}, {"sequence": "CATTTTTAAAAAAATTGTACAAAACATATATGTGTA [XGTACX_site3396]", "gcPBM binding intensity (ln)": "8.73 ± 0.42"}, {"sequence": "TATTAAAAGTAAAAAACACACATGGATATATACATA [CACACA_site3959]", "gcPBM binding intensity (ln)": "8.72 ± 0.42"}, {"sequence": "TTCCTTTTGAACTCTCGTACGCGTAGGTGTTATTAT [XGTACX_site6264]", "gcPBM binding intensity (ln)": "8.96 ± 0.4"}, {"sequence": "TTACTATATAATATGTGTACACAACATATAATATAT [XGTACX_site1383]", "gcPBM binding intensity (ln)": "8.56 ± 0.11"}, {"sequence": "AAAAAAAAAAAAAAAAAAAAAAAAATATATATATAT [CACACA_negctrl_site436]", "gcPBM binding intensity (ln)": "10 ± 0.31"}, {"sequence": "GTTGTGTAATTCGTAACACACATAAAATATAAATAA [CACACA_site7799]", "gcPBM binding intensity (ln)": "8.62 ± 0.49"}, {"sequence": "TTTTTTTTTTGATGTTGTACTTATATACTATATAAT [XGTACX_site2778]", "gcPBM binding intensity (ln)": "8.63 ± 0.33"}, {"sequence": "TAAATAAATAAAAAAACACACATATAAATATAAATA [CACACA_site7815]", "gcPBM binding intensity (ln)": "8.56 ± 0.4"}, {"sequence": "TGTTTCCTATTTTGTATGCACTTTTTGTCATAATTA [GTGCAC_site9921]", "gcPBM binding intensity (ln)": "9.01 ± 0.042"}, {"sequence": "TATACGGACTCTAAGTGTACTTAAAATAATTCAAAC [XGTACX_site3606]", "gcPBM binding intensity (ln)": "8.46 ± 0.32"}, {"sequence": "TATGTGTGACAAAATTGTACGGTCTCTTTATTTTGT [XGTACX_site2679]", "gcPBM binding intensity (ln)": "8.78 ± 0.62"}, {"sequence": "TATTATATAATAAAAATTATTATTATTTGTATAAAT [CACACA_negctrl_site195]", "gcPBM binding intensity (ln)": "7.89 ± 0.51"}, {"sequence": "ATTTTTATACCTAAGTGTACATGATGTTTTCTTTTT [XGTACX_site973]", "gcPBM binding intensity (ln)": "8.76 ± 0.47"}, {"sequence": "TATATTGCCCTTCACACACACACATATATATATATA [CACACA_site2492]", "gcPBM binding intensity (ln)": "10.2 ± 0.28"}, {"sequence": "TAAAAATGTTGACACACACACATAAATATATTTTAT [CACACA_site7227]", "gcPBM binding intensity (ln)": "8.53 ± 0.37"}, {"sequence": "ATATTATTTTAAAAAAGTACATTTTTAAGAATTCTT [XGTACX_site6630]", "gcPBM binding intensity (ln)": "8.51 ± 0.42"}, {"sequence": "AACATATAAATAAACTGTACATATATATATATATAT [XGTACX_site1056]", "gcPBM binding intensity (ln)": "10.1 ± 0.39"}, {"sequence": "AATATTACGTGTTTGGTATTTTTCGATGTTGGCAGG [XGTACX_negctrl_site59]", "gcPBM binding intensity (ln)": "8.79 ± 0.63"}, {"sequence": "TATCATTATGTAGAAACACACATAAGCTTCGGTTCA [CACACA_site2766]", "gcPBM binding intensity (ln)": "8.39 ± 0.67"}, {"sequence": "GGGGAAAAAAAAAAAGGAAAAAGAAAAAAAAAAAAA [GTGCAC_negctrl_site489]", "gcPBM binding intensity (ln)": "8.38 ± 0.39"}, {"sequence": "ATAAAATTTATATAAGCACACAAATATATATTTATA [CACACA_site9083]", "gcPBM binding intensity (ln)": "8.43 ± 0.53"}, {"sequence": "TTATGGTTATACATATGTACATATATATATATATAT [XGTACX_site1494]", "gcPBM binding intensity (ln)": "10.3 ± 0.2"}, {"sequence": "AATTGCATAATATATTCACACATTTTTAAGTGATAC [CACACA_site5679]", "gcPBM binding intensity (ln)": "8.38 ± 0.35"}, {"sequence": "GTAAAGGCTATATATGTGCACATTTTTTTTTTTTTT [GTGCAC_site9925]", "gcPBM binding intensity (ln)": "8.72 ± 0.4"}, {"sequence": "GTATATATATATATATGTACATATATGTAGATATAT [XGTACX_site5431]", "gcPBM binding intensity (ln)": "8.62 ± 0.35"}, {"sequence": "ATATGTACGCAAGGTGCACACTGGTGCATTAAAAAA [CACACA_site1801]", "gcPBM binding intensity (ln)": "9.66 ± 0.82"}, {"sequence": "ATGAATATAAAATATACACACTTATATATCGAATGA [CACACA_site6240]", "gcPBM binding intensity (ln)": "8.12 ± 0.5"}, {"sequence": "TACATATGGCACATATGTACACACGTATAGATAATA [XGTACX_site4123]", "gcPBM binding intensity (ln)": "8.79 ± 0.39"}, {"sequence": "TTTTATTTTTTCTCACGTACAAATATATAATTTTTT [XGTACX_site6952]", "gcPBM binding intensity (ln)": "8.64 ± 0.29"}, {"sequence": "AATATATCCTATTCGAACAAAAATACATGCACATAT [CACACA_negctrl_site1058]", "gcPBM binding intensity (ln)": "8.93 ± 0.14"}, {"sequence": "TAAATATATGCATATACACACAACAAAAAAATATAT [CACACA_site2341]", "gcPBM binding intensity (ln)": "8.94 ± 0.42"}, {"sequence": "TCTCAGTAAATTAAATGTACATAAGGGAGGAACTAT [XGTACX_site8045]", "gcPBM binding intensity (ln)": "8.78 ± 0.36"}]}]}
